Results reported in article PMC7139218, “Structural Basis for Rab8a Recruitment of RILPL2 via LRRK2 Phosphorylation of Switch 2” (Structure(London, England:1993), 2020).
Where a chain is given by its changes, count along the chain named. No constants are given. Whether binding was seen depends on the method and setting. Binding seen in cells or lysates may run through a third protein. Some results given as binding are weak or reduced against the parent protein; the word gives no strength. Tags and fused reporters may be left off the sequences shown.

By UniProt entry, the sequences of proteins in these tests, tags left out.
UniProt P61006: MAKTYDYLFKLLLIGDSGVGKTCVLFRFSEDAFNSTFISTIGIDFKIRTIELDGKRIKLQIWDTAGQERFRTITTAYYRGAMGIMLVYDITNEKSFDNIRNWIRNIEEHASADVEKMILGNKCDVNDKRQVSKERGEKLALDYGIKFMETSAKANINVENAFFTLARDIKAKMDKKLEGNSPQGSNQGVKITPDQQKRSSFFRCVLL

Tests used:
Assay in all cases: co-IP; HEK293 cells co-expressing Flag-LRRK2 (R1441G or Y1699C), HA-Rab and GFP-tagged effector, no MLi-2; GFP fusion precipitated with GFP binder Sepharose, 1 h, washed in 50 mM Tris-HCl pH 7.5, 150 mM NaCl; immunoblot
RILPL2-GFP R132Q (human) = target: T1, RILPL2-GFP R132Q (human) (UniProt Q969X0)
T1 sequence: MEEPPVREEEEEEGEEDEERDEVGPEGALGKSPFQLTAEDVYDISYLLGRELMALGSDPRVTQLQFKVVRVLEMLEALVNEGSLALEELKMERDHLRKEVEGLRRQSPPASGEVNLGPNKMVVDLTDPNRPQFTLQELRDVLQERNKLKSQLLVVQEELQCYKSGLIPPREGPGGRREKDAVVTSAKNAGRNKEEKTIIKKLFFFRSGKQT

RILPL2-GFP R132E (human) = target: T2, RILPL2-GFP R132E (human) (UniProt Q969X0)
T2 sequence: T1 sequence with Q132E

RILPL2-GFP R139Q (human) = target: T3, RILPL2-GFP R139Q (human) (UniProt Q969X0)
T3 sequence: T1 sequence with Q132R, R139Q

RILPL2-GFP R132A (human) = target: T4, RILPL2-GFP R132A (human) (UniProt Q969X0)
T4 sequence: T1 sequence with Q132A

RILPL2-GFP P131A (human) = target: T5, RILPL2-GFP P131A (human) (UniProt Q969X0)
T5 sequence: T1 sequence with P131A, Q132R

binding (RILPL2-GFP R132Q (human)): no binding
binding (RILPL2-GFP R132E (human)): no binding
binding (RILPL2-GFP R139Q (human)): binds
binding (RILPL2-GFP R132A (human)): no binding
binding (RILPL2-GFP P131A (human)): binds
Substance: HA-Rab8a WT, LRRK2-phosphorylated (pT72) (from UniProt P61006 1-207)
